The record followed here is the supplement of paper PMC4604168 (melanoma cell lines).

The list shows a part of the results. Single values are uncertain, as repeats are few or missing.
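Further: cell number obtained by counting DAPI-stained nuclei in high-throughput microscope images with image analysis software, screen run in 1,536-well plates.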

The subject of the assay is SkMel30. The assay can be described thus: cell count relative to DMSO control; melanoma cells; higher = more viable cells. The settings on record: library dose: low library concentration; 72 h.
For the molecule `Cn1c(Nc2ccc(C(F)(F)F)cc2)nc2cc(Oc3ccnc(-c4ncc(C(F)(F)F)[nH]4)c3)ccc21` + O=C(O)c1ccc(-c2c[nH]c3ncc(-c4ccccc4)cc23)cc1C1CCCC1 [GSK650394] (first compound 0.08 µM, partner dose 0.16 µM), the cell count was determined as 44.4%.
On to `OCc1c[nH]c2ccccc12` [Indole-3-carbinol] + CCN(CC)CCCCNc1ncc2cc(-c3cc(OC)cc(OC)c3)c(NC(=O)NC(C)(C)C)nc2n1 [PD173074] (first compound 0.8 µM, partner dose 0.1 µM), for which the cell count was determined as 93.3%.
The value for `Clc1ccc(Nc2nnc(Cc3ccncc3)c3ccccc23)cc1` [vatalanib] + O=C(Nc1ccccc1)c1cc([N+](=O)[O-])ccc1Cl [GW9662] (first compound 2 µM, partner dose 2 µM) was 85.2%.
The value for `Cn1c(Nc2ccc(C(F)(F)F)cc2)nc2cc(Oc3ccnc(-c4ncc(C(F)(F)F)[nH]4)c3)ccc21` + C=CCn1c(=O)c2cnc(Nc3ccc(N4CCN(C)CC4)cc3)nc2n1-c1cccc(C(C)(C)O)n1 [MK1775] (first compound 0.08 µM, partner dose 0.02 µM) was 62.9%; that for `OCc1c[nH]c2ccccc12` [Indole-3-carbinol] + CN(C)S(=O)(=O)c1ccc2c(c1)/C(=C/c1cc3c([nH]1)CCCC3)C(=O)N2 [SU6656] (first compound 0.8 µM, partner dose 0.4 µM) was 98.1%; that for `COCC[n+]1c2c(n(Cc3cnccn3)c1C)C(=O)c1ccccc1C2=O` + NC(=O)Nc1cc(-c2cccc(F)c2)sc1C(=O)N[C@H]1CCCNC1 [AZD7762] (first compound 0.0004 µM, partner dose 0.02 µM) was 83.5%.
For the molecule `Nc1cccc2c1CN(C1CCC(=O)NC1=O)C2=O` (stereo not drawn) [lenalidomide] + O=C(O)c1ccc(-c2c[nH]c3ncc(-c4ccccc4)cc23)cc1C1CCCC1 [GSK650394] (first compound 1 µM, partner dose 0.16 µM), the cell count amounted to 115%.
Take `COCC[n+]1c2c(n(Cc3cnccn3)c1C)C(=O)c1ccccc1C2=O` + Cn1cncc1[C@@](N)(c1ccc(Cl)cc1)c1ccc2c(c1)c(-c1cccc(Cl)c1)cc(=O)n2C [tipifarnib] (first compound 0.0004 µM, partner dose 0.01 µM): the cell count worked out at 81.9%.
